# Reference: article PMC4336329 (PLoS ONE, 2015)
# The campaign covered roughly 310,000 compounds. About 14,000 (4.5%) showed an effect of 50% or more. The effect is printed as a negative number. This is one part of the list.
# Target: human ether-à-go-go-related gene (hERG) potassium channel (human, UniProt Q12809)
# Experiment: primary screen, population patch clamp on CHO cells stably expressing hERG
# 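Note: peak tail current of the secondary pulse compared with the same well before compound.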
# human ether-à-go-go-related gene (hERG) potassium channel, sequence (Q12809 whole entry, looked up): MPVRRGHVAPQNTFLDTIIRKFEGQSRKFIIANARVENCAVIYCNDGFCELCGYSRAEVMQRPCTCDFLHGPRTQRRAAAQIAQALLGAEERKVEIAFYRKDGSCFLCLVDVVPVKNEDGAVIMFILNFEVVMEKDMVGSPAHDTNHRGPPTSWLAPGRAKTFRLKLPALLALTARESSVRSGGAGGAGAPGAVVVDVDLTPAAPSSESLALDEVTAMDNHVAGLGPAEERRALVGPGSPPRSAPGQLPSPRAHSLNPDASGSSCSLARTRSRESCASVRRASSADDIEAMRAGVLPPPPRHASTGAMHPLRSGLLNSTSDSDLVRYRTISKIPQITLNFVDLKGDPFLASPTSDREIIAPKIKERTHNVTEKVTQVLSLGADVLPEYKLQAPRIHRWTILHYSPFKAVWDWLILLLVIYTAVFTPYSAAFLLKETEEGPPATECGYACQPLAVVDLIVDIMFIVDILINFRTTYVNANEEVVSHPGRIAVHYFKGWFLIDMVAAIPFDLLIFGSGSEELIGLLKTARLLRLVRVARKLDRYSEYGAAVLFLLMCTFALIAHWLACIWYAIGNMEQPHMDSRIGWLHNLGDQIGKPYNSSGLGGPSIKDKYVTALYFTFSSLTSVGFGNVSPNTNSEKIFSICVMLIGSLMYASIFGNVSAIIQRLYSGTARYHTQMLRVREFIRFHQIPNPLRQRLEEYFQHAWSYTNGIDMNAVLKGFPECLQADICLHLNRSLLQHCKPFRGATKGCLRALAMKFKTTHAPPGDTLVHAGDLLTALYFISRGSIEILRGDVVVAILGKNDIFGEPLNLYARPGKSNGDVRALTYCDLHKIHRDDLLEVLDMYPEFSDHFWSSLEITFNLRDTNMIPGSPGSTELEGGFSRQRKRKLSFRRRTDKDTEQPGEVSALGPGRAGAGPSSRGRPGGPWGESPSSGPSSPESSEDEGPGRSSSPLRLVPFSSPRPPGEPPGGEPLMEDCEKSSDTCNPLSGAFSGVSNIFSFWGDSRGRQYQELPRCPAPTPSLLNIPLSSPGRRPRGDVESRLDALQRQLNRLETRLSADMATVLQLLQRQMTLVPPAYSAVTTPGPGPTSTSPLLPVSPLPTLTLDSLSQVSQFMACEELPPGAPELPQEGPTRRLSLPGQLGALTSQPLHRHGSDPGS
row,SMILES,"hERG current change (%, negative = inhibition) at 10uM [%]"
1,O=C(OC1CCOC1=O)c1ccc(Cl)c(S(=O)(=O)N2CCOCC2)c1 (stereo not shown),-16.5
2,COc1ccccc1N1CCN(S(=O)(=O)c2ccc(-c3ccc(=O)[nH]n3)o2)CC1,10.5
3,Cc1ccnc(SCC(=O)c2cc3ccccc3o2)n1,19.9
4,COc1cc2c(c(OC)c1OC)-c1ccc(N(C)CC(OC)OC)c(=O)cc1[C@@H](NC(C)=O)CC2,9
5,Cn1c(=O)c2c(ncn2CC(=O)N2CCN(c3cccc(Cl)c3)CC2)n(C)c1=O,-64.2
6,Cl.c1ccc2c(CN3CCCCCC3)c[nH]c2c1,-18.1
7,O=C(c1ccc2c(c1)OCO2)C1CCCN(Cc2cccn2-c2cccnc2)C1 (stereo not shown),-58.3
8,CCCOc1ccc(C2NC(=S)NC(c3ccccc3)=C2C(=O)Nc2ccc(C)cc2)cc1OC (stereo not shown),0.514
9,COC(=O)C1=C(c2ccc(F)cc2OCc2ccccc2)C[C@@H]2CC[C@H]1N2C(=O)NCc1ccccc1OC,7.42
10,Cc1cc2cc(CCNC(=O)c3ccc(S(=O)(=O)N4CCCC4)cc3)c(=O)[nH]c2cc1C,-3.92
11,NS(=O)(=O)c1cccc(NC(=O)c2cccc3c(Br)cccc23)c1,29.7
12,Cc1ccc(OCC(=O)NNC(=O)c2cc(C)[nH]n2)cc1,24.6
13,O=S(=O)(c1ccc(F)cc1)N1CCN(Cc2nnc(-c3ccccc3)o2)CC1,-33.4
14,O=C(Nc1ccc(N2CCN(C(=O)c3ccccc3)CC2)c(Cl)c1)c1ncn[nH]1,-5.79
15,CCOc1ccc(-n2c(C)nnc2SCC(=O)N(CC)CC)cc1,2.63
16,COCCNC(=O)c1cc2c3ccccc3n(C)c2s1,1.16
17,O=C(CCCc1ccccc1)NCc1ccc(F)cc1,-22.8
18,Cc1ccc2nc(C)c(Cl)c(=O)n2c1,-3.16
19,CCOc1ccc(-c2csc(N)c2C(=O)OC)cc1,-0.294
20,O=C(O)CSc1ncnc2sc(-c3ccccc3)cc12,23.6
21,CCC(=O)N1CCN(c2ccc(NC(=O)c3c(F)c(F)c(OC)c(F)c3F)cc2)CC1,-2.56
22,CC(C)CCN1CCN(Cc2nc3ccccc3s2)CC1CCO (stereo not shown),-41.4

row,SMILES,"hERG current change (%, negative = inhibition) at 10uM [%]"
1,O=C(c1ccc2c(c1)OCO2)C1CCCN(Cc2cccc(C(F)(F)F)c2)C1 (stereo not shown),-20.5
2,CCC(C)(C)NC(=O)C(c1ccncc1)N(C(=O)Cn1nnc2ccccc21)c1cc2c(cc1C(C)=O)OCO2 (stereo not shown),-3.25
3,COc1ccc(C2C3=C(CC(C)(C)CC3=O)N(CCN3CCOCC3)C3=C2C(=O)CC(C)(C)C3)cc1,-20.8
4,CN(C(=O)C1CCCN(S(=O)(=O)c2cccc([N+](=O)[O-])c2)C1)C1CCS(=O)(=O)C1 (stereo not shown),5.85
5,O=C(CSc1nnc(CNC(=O)c2ccc(F)cc2)o1)Nc1nccs1,-4.96
6,COc1ccccc1CN1CCCCC1c1cccnc1 (stereo not shown),-1.23
7,O=C(Cc1ccc(-c2ccccc2)cc1)N1CCOCC1,-3.74
8,C=CCN1C(=O)c2ccc(C(=O)N3CCN(S(=O)(=O)c4cccc(F)c4)CC3)cc2C1=O,-62.7
9,CCOCCCn1c(SCC(=O)Nc2cc(OC)ccc2OC)nc2ccccc2c1=O,-55.7
10,CC(NC(=O)Cc1ccccc1)c1ccc(F)cc1 (stereo not shown),27.3
11,COc1ccc(C(=O)NNC(=O)CSc2ccccc2)cc1,5.71
12,Cc1cc(=O)n2[nH]c(Nc3cccc(Cl)c3)nc2n1,21.2
13,CCCc1cc(=O)oc2c(CN3CCN(C)CC3)c(O)c(Cl)cc12,-10.3
14,CC(C)[C@H](NC(=O)c1ccc(Br)cc1)C(=O)NC1CCCCC1,1.97
15,COc1cccc(N2CCN(C(=O)c3cccnc3)CC2)c1,11.2
16,COC(=O)C1=C(C)NC2=C(C(=O)CCC2)C1c1ccc(-c2ccsc2C(=O)OC)o1 (stereo not shown),1.84
17,CC(C(=O)Nc1ccc(F)cc1Cl)N1CCN(S(=O)(=O)c2cccs2)CC1 (stereo not shown),-10.7
18,Cc1ccccc1C(=O)N1CCC(C(=O)N(CC(C)C)c2c(N)n(CC(C)C)c(=O)[nH]c2=O)CC1,5.62
19,O=C(Nc1ccc(Cc2ccncc2)cc1)c1ccc([N+](=O)[O-])o1,-24.4
20,Cc1ccc(S(=O)(=O)CC2CSc3nc(N)cc(=O)n32)cc1 (stereo not shown),2.97
21,COc1cc2c(cc1OC)CN(C(=O)c1ccc(OC)c(S(=O)(=O)N3CCOCC3)c1)CC2,3.03
